First the molecules themselves.
B1: Caulobacter ParB omega fusion; a variant is named by its letters at X, in order, B8GW30 (parent)
chain: MESVVVGEPGMSEGRRGLGRGLSALLGEVDAAPAQAPGEQLGGSREAPIEILQRNPDQPRRTFREEDLEDLSNSIREKGVLQPILVRPSPDTAGEYQIVAGERAWRAAQRAGLKTVPIMVRELDDLAVLEIGIIENVQRADLNVLEEALSYKVLMEKFERTQENIAQTIGKSXSHVANXMRLLXLPDEVQSYLVSGELTAXHARAIAAAADPVALAKQIIEGGLSVRETEALARKAPNLSAGKSKGGRPPRVKDTDTQALESDLSSVLGLDVSIDHRGSTGTLTITYATLEQLDDLCNRLTRGI

Whole data set: some 81,000 sequences, median “one-hybrid fitness for binding NBS DNA” near -0.1, cut for the highest 2% near 0.36. This is one part of the list.

Variants of B1 are the subject of the assay. In words: one-hybrid fitness for binding NBS DNA (the Noc-binding site; scaled: cognate 1, non-cognate 0); higher = stronger binding. The note with it: with NBS DNA site. In outline: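 Bacterial one-hybrid selection in E. coli USO rpoZ- hisB- pyrF- with a HIS3 reporter carrying the site 19 bp from the promoter, screening Caulobacter ParB libraries with four specificity codons randomised (NNS). Cells grew 48 hours at 37°C on M9-minus-histidine plus 0.1 mM IPTG and 5 mM 3-AT. Plasmids before and after selection were Illumina-sequenced, three replicate libraries pooled, and variants under 10 reads dropped. Fitness is the log change in variant-to-wild-type read ratio, rescaled to cognate 1, non-cognate 0.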
As to TAEN, the “one-hybrid fitness for binding NBS DNA” value was at most 0.2. As to HTSK, the “one-hybrid fitness for binding NBS DNA” value was at most 0.2.

With ASSG, the “one-hybrid fitness for binding NBS DNA” value was at most 0.2.

As for TPLC, the “one-hybrid fitness for binding NBS DNA” value is at most 0.2. The figure for RSCI is at most 0.2; for RQIL it is at most 0.2; for TSPC it is at most 0.2. In the case of AFTQ it was at most 0.2; in that of HTDL, at most 0.2; in that of PSNN, at most 0.2.

FRGG: the “one-hybrid fitness for binding NBS DNA” value was at most 0.2. The figure for MFVS is at most 0.2.

As for NHDY, the “one-hybrid fitness for binding NBS DNA” value is at most 0.2. The figure for MRFN is at most 0.2; for QCHH it is 0.333.

As to KGAG, the “one-hybrid fitness for binding NBS DNA” value is at most 0.2. In the case of SVWR it was at most 0.2; in that of CVQT, at most 0.2.

In the case of HFES, the “one-hybrid fitness for binding NBS DNA” value is at most 0.2. The figure for QMGP is at most 0.2; for PGNV it is at most 0.2; for RSDL it is at most 0.2.

In the case of HAHM, the “one-hybrid fitness for binding NBS DNA” value is at most 0.2. In the case of RTYE, the “one-hybrid fitness for binding NBS DNA” value is at most 0.2. The figure for KQCG is at most 0.2. With SLPC, the “one-hybrid fitness for binding NBS DNA” value was at most 0.2.

In the case of TEER, the “one-hybrid fitness for binding NBS DNA” value is at most 0.2.

As to NWIS, the “one-hybrid fitness for binding NBS DNA” value is at most 0.2. The figure for DMRY is at most 0.2; for GNRW it is at most 0.2. Consider RCSH, for which the “one-hybrid fitness for binding NBS DNA” value was 0.203. The figure for KKAL is at most 0.2; for MQNC it is at most 0.2; for YNMG it is at most 0.2. In the case of KPFV it was at most 0.2; in that of FPSS, at most 0.2. In the case of NIRQ it was at most 0.2; in that of CHAG, at most 0.2. With RLGL, the “one-hybrid fitness for binding NBS DNA” value is at most 0.2.

On to RYPN, for which the “one-hybrid fitness for binding NBS DNA” value was at most 0.2. In the case of RLCK, the “one-hybrid fitness for binding NBS DNA” value was at most 0.2. RSPF: the “one-hybrid fitness for binding NBS DNA” value was at most 0.2. In the case of IRFE it was at most 0.2. The figure for PPGF is at most 0.2; for KLIT it is at most 0.2. In the case of WVSV it was at most 0.2; in that of FGAY, at most 0.2.

Take RANH: the “one-hybrid fitness for binding NBS DNA” value was at most 0.2. The figure for QMKV is 0.424. The figure for YAIS is at most 0.2; for MNLR it is at most 0.2.

Turning to QPPI, the “one-hybrid fitness for binding NBS DNA” value was at most 0.2. In the case of AGIL it was at most 0.2; in that of HNYW, at most 0.2; in that of GNMF, at most 0.2. In the case of LITP it was at most 0.2; in that of KHTK, at most 0.2; in that of WCVR, at most 0.2. For the variant RVTA, the “one-hybrid fitness for binding NBS DNA” value is at most 0.2. The figure for QPLP is at most 0.2; for TEHT it is at most 0.2. The figure for LKHG is at most 0.2; for WVLR it is at most 0.2. The figure for SIIR is at most 0.2. As to RYAY, the “one-hybrid fitness for binding NBS DNA” value is at most 0.2. In the case of DTWT it was at most 0.2; in that of PTKW, at most 0.2.

For the variant TRYT, the “one-hybrid fitness for binding NBS DNA” value amounted to 0.334.

Consider TTPF, for which the “one-hybrid fitness for binding NBS DNA” value is at most 0.2.

As to YESS, the “one-hybrid fitness for binding NBS DNA” value was at most 0.2. The figure for HTSN is at most 0.2; for CNSF it is at most 0.2; for AFVR it is at most 0.2. QPPA: the “one-hybrid fitness for binding NBS DNA” value is at most 0.2.

On to PHKP, for which the “one-hybrid fitness for binding NBS DNA” value is at most 0.2.

In the case of NSNT, the “one-hybrid fitness for binding NBS DNA” value is at most 0.2.

Regarding EIRG, the “one-hybrid fitness for binding NBS DNA” value was at most 0.2. In the case of NMLN it was at most 0.2. WTNL: the “one-hybrid fitness for binding NBS DNA” value was at most 0.2. In the case of RSRD it was at most 0.2. In the case of IDAW it was at most 0.2; in that of RCRG, at most 0.2; in that of YLAS, at most 0.2. Consider KALF, for which the “one-hybrid fitness for binding NBS DNA” value is at most 0.2.

In the case of CQLA, the “one-hybrid fitness for binding NBS DNA” value is at most 0.2. For the variant GDLC, the “one-hybrid fitness for binding NBS DNA” value was at most 0.2. In the case of TEVC it was at most 0.2; in that of GRDG, at most 0.2; in that of MEAT, at most 0.2.

On to AVPW, for which the “one-hybrid fitness for binding NBS DNA” value was at most 0.2. On to VRTN, for which the “one-hybrid fitness for binding NBS DNA” value was at most 0.2. As for RQEQ, the “one-hybrid fitness for binding NBS DNA” value was at most 0.2. Regarding FHVR, the “one-hybrid fitness for binding NBS DNA” value was at most 0.2. In the case of SCLG it was at most 0.2; in that of ACDT, at most 0.2. LKKY: the “one-hybrid fitness for binding NBS DNA” value was at most 0.2. GPLS: the “one-hybrid fitness for binding NBS DNA” value was at most 0.2. The figure for QSQE is at most 0.2; for NYMT it is at most 0.2; for GDVG it is at most 0.2. The figure for NKLV is at most 0.2.

Take QSVW: the “one-hybrid fitness for binding NBS DNA” value was at most 0.2.

For VTLC, the “one-hybrid fitness for binding NBS DNA” value is at most 0.2. The figure for MTER is at most 0.2; for MREL it is at most 0.2. With EDER, the “one-hybrid fitness for binding NBS DNA” value is at most 0.2.

Take STYS: the “one-hybrid fitness for binding NBS DNA” value is at most 0.2.

As for CDIS, the “one-hybrid fitness for binding NBS DNA” value is at most 0.2.

Take QHCR: the “one-hybrid fitness for binding NBS DNA” value was 0.473. The figure for VSAP is at most 0.2; for LDLS it is at most 0.2.

As to KIKS, the “one-hybrid fitness for binding NBS DNA” value was at most 0.2. In the case of QQQY it was 0.247. The figure for SHKC is at most 0.2; for CPDS it is at most 0.2. Consider PRTQ, for which the “one-hybrid fitness for binding NBS DNA” value is at most 0.2. The figure for YGLC is at most 0.2.

Take HSKC: the “one-hybrid fitness for binding NBS DNA” value was at most 0.2. In the case of ARRV it was at most 0.2. In the case of IPLA it was at most 0.2; in that of TTPL, at most 0.2; in that of YERS, at most 0.2. The figure for TFVR is at most 0.2. Consider PTFQ, for which the “one-hybrid fitness for binding NBS DNA” value was at most 0.2. In the case of DQPE it was at most 0.2. The figure for LNKN is at most 0.2. Turning to MSRM, the “one-hybrid fitness for binding NBS DNA” value was at most 0.2. With TIAF, the “one-hybrid fitness for binding NBS DNA” value is at most 0.2. In the case of FVRT it was at most 0.2; in that of DPMD, at most 0.2; in that of RWQC, at most 0.2. In the case of QLRW it was at most 0.2.

For the variant RLLQ, the “one-hybrid fitness for binding NBS DNA” value was at most 0.2. In the case of WHID it was at most 0.2; in that of VPFY, at most 0.2.

Turning to YLYM, the “one-hybrid fitness for binding NBS DNA” value is at most 0.2. In the case of MSMK it was at most 0.2; in that of FKKR, at most 0.2; in that of TQKE, at most 0.2.

Consider ANRM, for which the “one-hybrid fitness for binding NBS DNA” value was at most 0.2. The figure for QQTW is at most 0.2. As to CPFS, the “one-hybrid fitness for binding NBS DNA” value was at most 0.2. As to LRHF, the “one-hybrid fitness for binding NBS DNA” value was at most 0.2. In the case of LAAP it was at most 0.2; in that of KRCV, at most 0.2. The figure for HRRS is at most 0.2. In the case of CSKG it was at most 0.2; in that of SRYR, at most 0.2; in that of LAHA, at most 0.2. Take ITPE: the “one-hybrid fitness for binding NBS DNA” value was at most 0.2.

As for ITIG, the “one-hybrid fitness for binding NBS DNA” value is at most 0.2. The figure for YFDM is at most 0.2; for KIPS it is at most 0.2.

For the origin of these results see a collection of fitness landscapes (doi:10.1016/j.celrep.2020.107928).
